Reference: PubChem BioAssay AID1745853 (National Center for Advancing Translational Sciences (NCATS), 2022)
Some of the results follow. Further columns of the screen follow, without active or inactive calls.

Legend:
Experiment in all cases: Primary Screen for Target Class Profiling of Small Molecule Inhibitors of Methyltransferases
[1] = target: Glycine N-methyltransferase (Homo sapiens) (UniProt Q14749); details: purified enzyme, MTase-Glo SAH luminescence; measured here: GNMT inhibition; at 40 µM; stronger effect = lower value
Summary of the method: (§1)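 Each enzyme was reacted with SAM and its substrate, with compounds tested once at 40 uM; SAH formed was read by MTase-Glo luminescence.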

[2] = target: Guanidinoacetate N-methyltransferase (Homo sapiens) (UniProt Q14353); details: purified enzyme, MTase-Glo SAH luminescence; measured here: GAMT inhibition; at 40 µM; stronger effect = lower value
Summary of the method: as §1

[3] = target: Histamine N-methyltransferase (Homo sapiens) (UniProt P50135); details: purified enzyme, MTase-Glo SAH luminescence; measured here: HNMT inhibition; at 40 µM; stronger effect = lower value
Summary of the method: as §1

[4] = target: Nicotinamide N-methyltransferase (Homo sapiens) (UniProt P40261); details: purified enzyme, MTase-Glo SAH luminescence; measured here: NNMT inhibition; at 40 µM; stronger effect = lower value
Summary of the method: as §1

[5] = target: Phenylethanolamine N-methyltransferase (Homo sapiens) (UniProt P11086); details: purified enzyme, MTase-Glo SAH luminescence; measured here: PNMT inhibition; at 40 µM; stronger effect = lower value
Summary of the method: as §1
On the % scale 0 is the no-effect control and ±100 the full control effect.

Structure (SMILES) | activity change, negative = inhibition [1] [%] | activity change, negative = inhibition [2] [%] | activity change, negative = inhibition [3] [%] | activity change, negative = inhibition [4] [%] | activity change, negative = inhibition [5] [%]
Cc1ccc(NC(=O)N2Cc3ccccc3-n3cccc3C2c2ccc(N(C)C)cc2)cc1Cl (stereo not given) | 3.72 | 0 | -5.39 | 1.16 | -6.37
Cc1ccc(NC(=O)N2Cc3ccccc3-n3cccc3C2C)c(Cl)c1 (stereo not given) | 5.12 | 0 | 4.01 | -2.16 | 2.62
COc1cc(NC(=O)N2Cc3ccccc3-n3cccc3C2c2cccs2)cc(OC)c1 (stereo not given) | 6.79 | 0 | 1.33 | -1.18 | 4.25
O=C(Nc1ccc(Br)cc1F)N1Cc2ccccc2-n2cccc2C1c1cccs1 (stereo not given) | 9.63 | 2.95 | 4.88 | -5.98 | 10.1
FC(F)(F)c1ccc(N2CCNCC2)nc1Cl | 6.27 | 4.72 | 2.86 | -8.56 | 0.507
CCOC(=O)c1ccc(-c2ccc(OC(=O)N(C)Cc3cccc(-c4ccncc4)c3)cc2)cc1 | 0.546 | -11.1 | 10.8 | -19.4 | -6.16
COc1cccc(NC(=O)N2Cc3ccccc3-n3cccc3C2c2ccccc2)c1 (stereo not given) | 9.12 | 0 | 2.48 | -0.016 | 6.85
C[C@H](Cc1ccc2c(c1)OC(C(=O)O)(C(=O)O)O2)NC[C@H](O)c1cccc(Cl)c1 | -3.96 | 5.69 | -1.64 | -4.45 | 4.9
CCOc1ccc(C2c3cccn3-c3ccccc3CN2C(=O)Nc2ccccc2F)cc1 (stereo not given) | -1.8 | 0.229 | 5.67 | 9.54 | 9.69
CCOc1ccc(C2c3cccn3-c3ccccc3CN2C(=O)Nc2ccccc2C(=O)OC)cc1 (stereo not given) | -0.697 | 1.87 | 4.05 | 2.67 | 0.834
CCC1(c2ccc(N)cc2)CCC(=O)NC1=O (stereo not given) | 1.59 | 8.73 | 4.67 | -4.04 | 4.61
c1ccc(-c2ncc3c(n2)C[C@@H]2CC[C@H]3N2)cc1 | -1.12 | -6.88 | -5.31 | -5.33 | 1.75
C[N+]1(C)CCN(c2ccccc2)CC1 | -19.8 | 0.932 | -0.795 | -4.95 | 7.12
COc1cccc(CNC(=O)N2Cc3ccccc3-n3cccc3C2c2ccc(C)cc2)c1 (stereo not given) | 9.12 | 0.11 | 1.12 | 5.61 | 7.1
CCOc1ccc(C2c3cccn3-c3ccccc3CN2C(=O)Nc2cccc(C)c2)cc1 (stereo not given) | 0.143 | 4.3 | 9.72 | 5.25 | 6.66
CO[C@H]1C[C@H](O[C@H]2CC[C@]3(C=O)[C@H]4CC[C@]5(C)[C@@H](C6=CC(=O)OC6)CC[C@]5(O)[C@@H]4CC[C@]3(O)C2)O[C@H](C)[C@H]1O | 3.06 | 9.49 | 11.9 | -3.78 | 7.53
COC1CC(O[C@H]2CC[C@]3(C)C4CC[C@]5(C)[C@@H](C6=CC(=O)OC6)[C@@H](OC(C)=O)C[C@]5(O)C4CC[C@@H]3C2)OC(C)C1O[C@@H]1O[C@H](CO)[C@@H](O)[C@H](O)[C@H]1O (stereo not given in full) | -0.544 | -10.1 | 5.91 | -16.6 | 4.57
N[C@@]1(C(=O)O)CC[C@@H](C(=O)O)C1 | 7.65 | 17 | 12.7 | -1.69 | 4.23
CSc1ccc(C2c3cccn3-c3ccccc3CN2C(=O)Nc2ccc(C)c(Cl)c2)cc1 (stereo not given) | 4.66 | 0.389 | 7.08 | 1.26 | 6.4
C[C@]12CC[C@H](O)C[C@@H]1CC[C@@H]1[C@@H]2CC[C@]2(C)C(=O)CC[C@@H]12 | 1.64 | 7 | 11.7 | -7.54 | 6.33

Structure (SMILES) | activity change, negative = inhibition [1] [%] | activity change, negative = inhibition [2] [%] | activity change, negative = inhibition [3] [%] | activity change, negative = inhibition [4] [%] | activity change, negative = inhibition [5] [%]
Cc1ccc(C)c(NC(=O)N2Cc3ccccc3-n3cccc3C2c2cccs2)c1 (stereo not given) | 5.96 | 0.499 | 3.43 | -0.399 | 4.58
COc1ccc(C2c3cccn3-c3ccccc3CN2C(=O)NCCC(C)C)cc1OC (stereo not given) | 0.123 | 1.69 | -5.87 | -1.23 | -0.597
COc1ccc(C2c3cccn3-c3ccccc3CN2C(=O)NCc2cccc(OC)c2)cc1 (stereo not given) | 7.41 | 4.31 | 7.28 | -1.79 | 3.48
COc1ccc(C2c3cccn3-c3ccccc3CN2C(=O)NC2CCCC2)cc1 (stereo not given) | 7.52 | 0 | 1.78 | -2.91 | 4.28
O=C(Nc1ccc2c(c1)OCCO2)N1Cc2ccccc2-n2cccc2C1c1cc(F)cc(F)c1 (stereo not given) | 8.94 | 0 | 0.531 | 7.51 | 6.96
CNC1CCc2ccccc21 (stereo not given) | -4.82 | -4.57 | -19.9 | -11.8 | -50.2
Cc1cccc(NC(=O)N[C@@H]2N=C(c3ccccc3)c3ccccc3N(C)C2=O)c1 | 5.26 | -4.41 | 4.98 | -33.3 | -4.6
O=C(Nc1ccccc1Br)N1Cc2ccccc2-n2cccc2C1c1ccccc1 (stereo not given) | 1.24 | 3.85 | -5.29 | -6.57 | -3.41
CN(C(=O)Cc1ccc(Cl)c(Cl)c1)C(CN1CCCC1)c1cccc(OCC(=O)O)c1 (stereo not given) | -4.97 | 1.78 | -4.44 | -6.45 | 6.29
NCCc1ccc(O)cc1 | 5.7 | 12.4 | -94.2 | -3 | -0.407
O=[S+]([O-])(C1CC1)N1C2CCC1CN(Cc1cccnc1)C2 | -5.35 | -8.39 | -2.24 | -10 | -3.67
CCOCCCNC(=O)N1Cc2ccccc2-n2cccc2C1c1ccc(OCC)cc1 (stereo not given) | -1.28 | 2.81 | 9.91 | 4.15 | 8.97
COc1ccc(C23CCC(=O)C=C2N(C)CC3)cc1OC (stereo not given) | -6.37 | -12.2 | -1.2 | -20.3 | -12.3
CCOC(=O)CNC(=O)N1Cc2ccccc2-n2cccc2C1c1ccc(C(C)C)cc1 (stereo not given) | -4.57 | 3.52 | 7.49 | -3.87 | 2.73
COc1ccc(-c2cc([C@H]3CN4CC[C@H]3C[C@@H]4CN)nc(C)n2)cc1OC | -23.5 | -1.27 | -57.3 | -40 | -6.2
Cc1ccc(C2c3cccn3-c3ccccc3CN2C(=O)Nc2ccc(C)c(Cl)c2)cc1 (stereo not given) | 5.36 | 6.73 | -7 | -6 | -0.948
NNC(N)=O | -4.05 | 7.25 | 0.233 | -2.41 | 7.94
Cn1nc(-c2ccc(F)cc2)cc1[C@H]1CN2CC[C@H]1C[C@@H]2CNC(=O)c1cccs1 | -5.3 | -4.29 | -23 | -11.6 | -2
N#C[C@@H](O[C@@H]1O[C@H](CO[C@@H]2O[C@H](CO)[C@@H](O)[C@H](O)[C@H]2O)[C@@H](O)[C@H](O)[C@H]1O)c1ccccc1 | -0.436 | -1.53 | 3.61 | -11 | -8.55
